Laboratory results taken from the supplement of paper PMC8728848.
Some of the results follow.

How the values were obtained:
Experiment in all cases: glycan array binding signal (z-score within array); higher = stronger binding
Details in all cases: glycan notation: IUPAC condensed, linker removed
[1] = molecular target: Neu5Ac(a2-6)Gal(b1-4)GlcNAc(b1-3)[Neu5Ac(a2-6)Gal(b1-4)GlcNAc(b1-6)]GalNAc
Method in brief: (§1)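 The Consortium for Functional Glycomics database supplied 3228 glycan arrays, of which those lacking an available protein sequence were dropped. The binding signal, a within-array Z-score, was averaged across arrays of the same protein sequence and across linkers. Negative scores can be read as non-binding.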

[2] = molecular target: Neu5Ac(a2-6)Gal(b1-4)GlcNAc(b1-6)GalNAc
Method in brief: as §1

[3] = molecular target: Neu5Ac(a2-6)Gal(b1-4)GlcNAc(b1-6)[Gal(b1-3)GlcNAc(b1-3)]Gal(b1-4)Glc
Method in brief: as §1

[4] = molecular target: Neu5Ac(a2-6)Gal(b1-4)GlcNAc(b1-6)[Gal(b1-3)]GalNAc
Method in brief: as §1

[5] = molecular target: Neu5Ac(a2-6)Gal(b1-4)GlcNAc6S
Method in brief: as §1

Neu5Ac(a2-6)GalNAc = molecular target: Neu5Ac(a2-6)GalNAc
Method in brief: as §1

[6] = molecular target: Neu5Ac(a2-6)GalNAc(b1-4)GlcNAc
Method in brief: as §1

[7] = molecular target: Neu5Ac(a2-6)GalNAc(b1-4)GlcNAc6S
Method in brief: as §1

[8] = molecular target: Neu5Ac(a2-6)GlcNAc(b1-4)GlcNAc
Method in brief: as §1

[9] = molecular target: Neu5Ac(a2-6)GlcNAc(b1-4)GlcNAc(b1-4)GlcNAc
Method in brief: as §1

Neu5Ac(a2-8)Neu5Ac = molecular target: Neu5Ac(a2-8)Neu5Ac
Method in brief: as §1

[10] = molecular target: Neu5Ac(a2-8)Neu5Ac(a2-3)Gal(b1-3)GalNAc(b1-4)[Neu5Ac(a2-3)]Gal(b1-4)Glc
Method in brief: as §1

[11] = molecular target: Neu5Ac(a2-8)Neu5Ac(a2-3)Gal(b1-3)GalNAc(b1-4)[Neu5Ac(a2-8)Neu5Ac(a2-3)]Gal(b1-4)Glc
Method in brief: as §1

[12] = molecular target: Neu5Ac(a2-8)Neu5Ac(a2-3)Gal(b1-4)Glc
Method in brief: as §1

[13] = molecular target: Neu5Ac(a2-8)Neu5Ac(a2-3)Gal(b1-4)GlcNAc
Method in brief: as §1

[14] = molecular target: Neu5Ac(a2-8)Neu5Ac(a2-3)[Gal(b1-3)GalNAc(b1-4)]Gal(b1-4)Glc
Method in brief: as §1

[15] = molecular target: Neu5Ac(a2-8)Neu5Ac(a2-3)[GalNAc(b1-4)]Gal(b1-4)Glc
Method in brief: as §1

[16] = molecular target: Neu5Ac(a2-8)Neu5Ac(a2-8)Neu5Ac
Method in brief: as §1

[17] = molecular target: Neu5Ac(a2-8)Neu5Ac(a2-8)Neu5Ac(a2-3)Gal(b1-4)Glc
Method in brief: as §1

[18] = molecular target: Neu5Ac(a2-8)Neu5Ac(a2-8)Neu5Ac(a2-3)[Gal(b1-3)GalNAc(b1-4)]Gal(b1-4)Glc
Method in brief: as §1

[19] = molecular target: Neu5Ac(a2-8)Neu5Ac(a2-8)Neu5Ac(a2-3)[GalNAc(b1-4)]Gal(b1-4)Glc
Method in brief: as §1

[20] = molecular target: Neu5Ac(a2-8)Neu5Ac(a2-8)Neu5Ac(a2-8)Neu5Ac(a2-3)[GalNAc(b1-4)]Gal(b1-4)Glc
Method in brief: as §1

[21] = molecular target: Neu5Ac(a2-8)Neu5Gc(a2-3)Gal(b1-4)GlcNAc
Method in brief: as §1

[22] = molecular target: Neu5Ac(b2-6)Gal(b1-4)GlcNAc
Method in brief: as §1

Neu5Ac(b2-6)GalNAc = molecular target: Neu5Ac(b2-6)GalNAc
Method in brief: as §1

[23] = molecular target: Neu5Ac9Ac(a2-3)Gal(b1-3)GlcNAc
Method in brief: as §1

[24] = molecular target: Neu5Ac9Ac(a2-3)Gal(b1-4)GlcNAc
Method in brief: as §1

[25] = molecular target: Neu5Ac9Ac(a2-6)Gal(b1-4)GlcNAc
Method in brief: as §1

[26] = molecular target: Neu5Gc(a2-3)Gal(b1-3)GlcNAc
Method in brief: as §1

[27] = molecular target: Neu5Gc(a2-3)Gal(b1-3)[Fuc(a1-4)]GlcNAc
Method in brief: as §1

Neu5Gc(a2-3)Gal(b1-4)Glc = molecular target: Neu5Gc(a2-3)Gal(b1-4)Glc
Method in brief: as §1

[28] = molecular target: Neu5Gc(a2-3)Gal(b1-4)GlcNAc
Method in brief: as §1

[29] = molecular target: Neu5Gc(a2-3)Gal(b1-4)GlcNAc(b1-3)Gal(b1-4)GlcNAc(b1-2)Man(a1-3)[Neu5Gc(a2-3)Gal(b1-4)GlcNAc(b1-3)Gal(b1-4)GlcNAc(b1-2)Man(a1-6)]Man(b1-4)GlcNAc(b1-4)GlcNAc
Method in brief: as §1

[30] = molecular target: Neu5Gc(a2-3)Gal(b1-4)[Fuc(a1-3)]GlcNAc
Method in brief: as §1

[31] = molecular target: Neu5Gc(a2-6)Gal(b1-4)GlcNAc
Method in brief: as §1

Neu5Gc(a2-6)GalNAc = molecular target: Neu5Gc(a2-6)GalNAc
Method in brief: as §1

[32] = molecular target: Neu5Gc(a2-8)Neu5Ac(a2-3)Gal(b1-4)GlcNAc
Method in brief: as §1

[33] = molecular target: Neu5Gc(a2-8)Neu5Gc(a2-3)Gal(b1-4)GlcNAc
Method in brief: as §1

B1: DC-ASGPR L+GEE (Homo sapiens) (protein)
chain: MTRTYENFQYLENKVKVQGFKNGPLPLQSLLQRLRSGPCHLLLSLGLGLLLLVIICVVGFQNSKFQRDLVTLRTDFSNFTSNTVAEIQALTSQGSSLEETIASLKAEVEGFKQERQAGVSELQEHTTQKAHLGHCPHCPSVCVPVHSEMLLRVQQLVQDLKKLTCQVATLNNNGEEASTEGTCCPVNWVEHQDSCYWFSHSGMSWAEAEKYCQLKNAHLVVINSREEQNFVQKYLGSAYTWMGLSDPEGAWKWVDGTDYATGFQNWKPGQPDDWQGHGLGGGEDCAHFHPDGRWNDDVCQRPYHWVCEAGLGQTSQESH
- glycan array binding signal (z-score) [1]: -0.181
- glycan array binding signal (z-score) [2]: -0.304
- glycan array binding signal (z-score) [3]: -0.478
- glycan array binding signal (z-score) [4]: -0.373
- glycan array binding signal (z-score) [5]: 0.107
- glycan array binding signal (z-score) (Neu5Ac(a2-6)GalNAc): 1.65
- glycan array binding signal (z-score) [6]: 0.37
- glycan array binding signal (z-score) [7]: 0.772
- glycan array binding signal (z-score) [8]: 0.184
- glycan array binding signal (z-score) [9]: -0.507
- glycan array binding signal (z-score) (Neu5Ac(a2-8)Neu5Ac): -0.098
- glycan array binding signal (z-score) [10]: -0.654
- glycan array binding signal (z-score) [11]: -0.084
- glycan array binding signal (z-score) [12]: -0.07
- glycan array binding signal (z-score) [13]: -0.433
- glycan array binding signal (z-score) [14]: 0.544
- glycan array binding signal (z-score) [15]: 1.13
- glycan array binding signal (z-score) [16]: -0.128
- glycan array binding signal (z-score) [17]: 0.408
- glycan array binding signal (z-score) [18]: -0.246
- glycan array binding signal (z-score) [19]: 0.514
- glycan array binding signal (z-score) [20]: 0.888
- glycan array binding signal (z-score) [21]: -0.496
- glycan array binding signal (z-score) [22]: -0.17
- glycan array binding signal (z-score) (Neu5Ac(b2-6)GalNAc): -0.359
- glycan array binding signal (z-score) [23]: -0.517
- glycan array binding signal (z-score) [24]: 0.24
- glycan array binding signal (z-score) [25]: -0.41
- glycan array binding signal (z-score) [26]: -0.017
- glycan array binding signal (z-score) [27]: 0.067
- glycan array binding signal (z-score) (Neu5Gc(a2-3)Gal(b1-4)Glc): -0.047
- glycan array binding signal (z-score) [28]: -0.119
- glycan array binding signal (z-score) [29]: 0.641
- glycan array binding signal (z-score) [30]: 0.026
- glycan array binding signal (z-score) [31]: -0.325
- glycan array binding signal (z-score) (Neu5Gc(a2-6)GalNAc): 0.937
- glycan array binding signal (z-score) [32]: -0.302
- glycan array binding signal (z-score) [33]: -0.146
